The whole screen tested about 150,000 compounds, of which about 180 (0.12%) were called active. Inconclusive results, whose numbers are uncertain, are shown with a selection of clear calls. Calls follow the shape of the dose curve; as a rule, active = well fitted cell-killing curve with a large enough effect; inconclusive = small, poorly fitted or top-dose-only effect, or effect the other way; inactive = flat fitted curve, though single readings scatter. Potencies of inconclusive entries are doubtful fits and often do not repeat.
assay: GF-AFC viability counterscreen for inhibitors of alpha-synuclein gene (SNCA) expression; details: HEK-293-SNCA-luc viability, GF-AFC fluorescence, 24 h; activity change, negative = cytotoxicity: at 57.1 µM (top of the series) unless noted; also: nearly all actives have a fitted effect of over 30% in size;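 as to activity change, negative = cytotoxicity: 0% = DMSO-treated cells and -100% = medium-only wells without cells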
Outline: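 HEK-293-SNCA-luc cells (1500/well) plated 24 h, then exposed 24 h to a dilution series; GF-AFC added 30 min at 37C, fluorescence 405/540 nm; normalised to medium-only and DMSO wells, Hill fit.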
Potency is read from the fitted curve at half-maximal effect; tags tell the direction and shape of the fitted curve.

| SMILES | activity change, negative = cytotoxicity | Potency |
| --- | --- | --- |
| COc1ccc(CNC(=O)N2CCCC2c2noc(COc3ccc(C)cc3)n2)cc1 (configuration not stated) | inactive: 2.11% |  |
| Cc1cc(C)c(OCC(=O)N(Cc2cccc(F)c2)Cc2ccco2)c(C)c1 | inactive: -18.1% |  |
| CC1=C[C@@H](CNS(=O)(=O)c2ccccc2)[C@H](C(C)C)C[C@H]1Cc1nnc(-c2ccncc2)o1 |  | inconclusive: 25.1 µM [cytotoxic, single point] |
| C#CCNC(=O)C[C@@H]1CCN(C(=O)Nc2cccc(C(=O)OCC)c2)C[C@@H]1CC | inactive: 7.51% [at 87.6 µM] |  |
| O=C(NCC1CC1)C1CCN(C(=O)c2ccc(-c3cncnc3)cc2)CC1 | inactive: -29% |  |
| C=CC(=O)Nc1ccc2ncnc(Nc3cccc(Br)c3)c2c1 |  | inconclusive: 18.9 µM [cytotoxic, partial curve] |
| Cc1ccccc1-c1cccc(CN2CCOC(CCN)C2)c1 (configuration not stated) |  | inconclusive: 39.8 µM [cytotoxic, single point] |
| COc1ccc(Nc2ccnc(N3CCC(N[S+](=O)([O-])c4cccc(C(F)(F)F)c4)CC3)n2)cc1 |  | inconclusive: 31.6 µM [cytotoxic, single point] |
| Cc1ccsc1C(=O)NC1CCc2nn(CC3CC3)c(=O)n2CC1 (configuration not stated) | inactive: -1.2% |  |
| CCCNC(=O)NC[C@@H]1C=C(C)[C@H](Cc2nc3ccccc3[nH]2)C[C@H]1C(C)C |  | inconclusive: 31.6 µM [cytotoxic, partial curve, poor fit] |
| CC(C)(C)[C@]1(O)CCN2C[C@H]3c4ccccc4CCc4cccc(c43)[C@@H]2C1 |  | inconclusive: 7.94 µM [cytotoxic, full curve, poor fit] |
| O=C(NCc1ccc(C(F)(F)F)cc1)c1ccc2nnc(-c3ccc(C(F)(F)F)cc3)n2c1 |  | inconclusive: 25.1 µM [cytotoxic, single point] |
| COCC(=O)N1c2nc(-c3ccco3)nn2C2(CCCCC2)[C@@H]2CCCC[C@@H]21 |  | inconclusive: 15.8 µM [cytotoxic, partial curve, poor fit] |
| CCCN(C(=O)c1cc2c(=O)oc3ccccc3c2s1)c1ccccc1C |  | inconclusive: 7.08 µM [cytotoxic, single point] |
| CCOC(=O)c1c(S(=O)(=O)N2CCC(C(=O)Nc3cccc(C)n3)CC2)c(C)n(C)c1C |  | inconclusive: 0.158 µM [cytotoxic, partial curve, poor fit] |
| Cc1ccc(C)c(N2CCN(c3nc4c(S(=O)(=O)c5ccccc5)nnn4c4ccc(Cl)cc34)CC2)c1 | inactive: -4.44% |  |
| COc1ccc(NC(=O)Cn2c(=O)n(-c3ccc(C)c(C)c3)c(=O)c3c(C)c(C)sc32)cc1 |  | inconclusive: 1.12 µM [cytotoxic, full curve, poor fit] |

From PubChem BioAssay AID1671193 (National Center for Advancing Translational Sciences (NCATS), 2021)
